Source: a collection of fitness landscapes (doi:10.1016/j.celrep.2020.107928)
Whole data set: some 81,000 sequences, median “one-hybrid fitness for binding NBS DNA” near -0.1, cut for the highest 2% near 0.36. The list shows a part of the results.

B1: Caulobacter ParB omega fusion; a variant is named by its letters at X, in order, B8GW30 (parent)
chain: MESVVVGEPGMSEGRRGLGRGLSALLGEVDAAPAQAPGEQLGGSREAPIEILQRNPDQPRRTFREEDLEDLSNSIREKGVLQPILVRPSPDTAGEYQIVAGERAWRAAQRAGLKTVPIMVRELDDLAVLEIGIIENVQRADLNVLEEALSYKVLMEKFERTQENIAQTIGKSXSHVANXMRLLXLPDEVQSYLVSGELTAXHARAIAAAADPVALAKQIIEGGLSVRETEALARKAPNLSAGKSKGGRPPRVKDTDTQALESDLSSVLGLDVSIDHRGSTGTLTITYATLEQLDDLCNRLTRGI

Variants of: B1
Experiment: one-hybrid fitness for binding NBS DNA (the Noc-binding site; scaled: cognate 1, non-cognate 0); higher = stronger binding
Settings: with NBS DNA site
Outline: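 Fitness is the rescaled log change in variant-to-wild-type read ratio, measured by Illumina sequencing of plasmids before and after bacterial one-hybrid selection. The scale puts cognate at 1 and non-cognate at 0. Selection of Caulobacter ParB libraries, four specificity codons randomised, took place in E. coli USO with a HIS3 reporter, site 19 bp from the promoter, over 48 hours at 37°C on M9-minus-histidine with 0.1 mM IPTG and 5 mM 3-AT.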

Variant	one-hybrid fitness for binding NBS DNA
SEVR	≤ 0.2
YVAR	≤ 0.2
HDAP	≤ 0.2
SAGF	≤ 0.2
SNGT	≤ 0.2
EIQR	≤ 0.2
CTLS	≤ 0.2
LHTM	≤ 0.2
PVSL	≤ 0.2
GKPE	≤ 0.2
RENL	≤ 0.2
TAMI	≤ 0.2
VWTT	≤ 0.2
LSDF	≤ 0.2
PQQK	≤ 0.2
RRWV	0.261
VTAG	≤ 0.2
QSLG	≤ 0.2
NFPH	≤ 0.2
RRGE	≤ 0.2
VKFS	≤ 0.2
QIWR	0.304
FQKS	≤ 0.2
HNPN	≤ 0.2
GMYN	≤ 0.2

Variant	one-hybrid fitness for binding NBS DNA
RLEW	≤ 0.2
AIFS	≤ 0.2
ELNF	≤ 0.2
CQGG	≤ 0.2
IAHG	≤ 0.2
GRGG	≤ 0.2
DEER	≤ 0.2
TLQA	≤ 0.2
ARKM	≤ 0.2
EMDK	≤ 0.2
SFGS	≤ 0.2
EEDS	≤ 0.2
THVI	≤ 0.2
EKIY	≤ 0.2
LKVM	≤ 0.2
HMTI	≤ 0.2
PHDS	≤ 0.2
KCNA	≤ 0.2
GENR	≤ 0.2
WAER	≤ 0.2
GMDR	≤ 0.2
DQIT	≤ 0.2
QMHP	≤ 0.2
KIYG	≤ 0.2
GAAI	≤ 0.2

Variant	one-hybrid fitness for binding NBS DNA
MAPT	≤ 0.2
QRLD	≤ 0.2
KTQL	≤ 0.2
HTDI	≤ 0.2
DACV	≤ 0.2
TYEA	≤ 0.2
YQYR	≤ 0.2
MCDS	≤ 0.2
CAGV	≤ 0.2
ASCK	≤ 0.2
SHMN	≤ 0.2
RYIV	≤ 0.2
CCCR	≤ 0.2
QWLT	≤ 0.2
NPRF	≤ 0.2
PISN	≤ 0.2
MSGD	≤ 0.2
PKKS	≤ 0.2
WMTS	≤ 0.2
LANC	≤ 0.2
ASNY	≤ 0.2
AMPD	≤ 0.2
YKHL	≤ 0.2
MNGV	≤ 0.2
CRLY	≤ 0.2

Variant	one-hybrid fitness for binding NBS DNA
MIER	≤ 0.2
KNIF	≤ 0.2
RNPN	≤ 0.2
NSKS	≤ 0.2
HFGC	≤ 0.2
ALHL	≤ 0.2
SRKH	≤ 0.2
TIIT	≤ 0.2
DSDD	≤ 0.2
GLVR	≤ 0.2
HIGT	≤ 0.2
QFIT	≤ 0.2
AAMT	≤ 0.2
NPPT	≤ 0.2
DLAC	≤ 0.2
RAED	≤ 0.2
HTHN	≤ 0.2
NVGY	≤ 0.2
IWHC	≤ 0.2
IKQT	≤ 0.2
ARAF	≤ 0.2
LARH	≤ 0.2
